Test results taken from the supplement of paper PMC3334620.
Over roughly 33,000 sequences, “E-score (-0.5 to 0.5)” has its median near -0.021; the highest 2% begin near 0.32. The list shows a part of the results.

Molecular target: T1, Zap1 (UniProt P47043)
T1 sequence: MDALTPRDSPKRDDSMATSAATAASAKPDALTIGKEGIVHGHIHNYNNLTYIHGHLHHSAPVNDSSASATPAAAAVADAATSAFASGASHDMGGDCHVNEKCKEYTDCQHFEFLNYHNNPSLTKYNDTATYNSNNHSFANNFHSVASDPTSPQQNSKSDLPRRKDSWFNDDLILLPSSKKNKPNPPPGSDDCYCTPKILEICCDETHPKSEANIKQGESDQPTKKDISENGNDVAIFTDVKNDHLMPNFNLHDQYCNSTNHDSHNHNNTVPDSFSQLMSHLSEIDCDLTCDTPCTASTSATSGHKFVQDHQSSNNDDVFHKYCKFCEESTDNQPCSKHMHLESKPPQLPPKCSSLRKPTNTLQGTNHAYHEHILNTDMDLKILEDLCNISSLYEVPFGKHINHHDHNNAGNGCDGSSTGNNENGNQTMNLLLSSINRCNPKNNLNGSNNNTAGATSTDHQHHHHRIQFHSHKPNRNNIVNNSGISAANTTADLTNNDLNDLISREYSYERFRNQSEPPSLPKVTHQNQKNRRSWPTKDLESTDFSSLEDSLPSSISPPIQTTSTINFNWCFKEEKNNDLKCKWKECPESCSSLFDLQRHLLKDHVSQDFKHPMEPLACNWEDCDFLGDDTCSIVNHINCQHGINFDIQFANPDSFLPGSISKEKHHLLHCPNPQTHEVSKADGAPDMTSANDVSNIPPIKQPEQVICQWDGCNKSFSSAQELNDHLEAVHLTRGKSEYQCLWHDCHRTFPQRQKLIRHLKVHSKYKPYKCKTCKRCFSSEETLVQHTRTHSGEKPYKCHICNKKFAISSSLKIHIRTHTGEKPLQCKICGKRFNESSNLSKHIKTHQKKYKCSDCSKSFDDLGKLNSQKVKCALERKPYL
Experiment: PBM E-score (8-mer binding enrichment) (E-score (-0.5 to 0.5)); higher = stronger / more preferred TF binding; most listed sequences are background and not binding sites
Conditions: protein concentration: 200 nM; construct: GST-full length
Method in brief: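 PURExpress in vitro transcription/translation supplied GST-tagged yeast transcription factors, either full-length or DNA-binding domain. Applied at about 100-200 nM to universal all-10-mer Agilent arrays double-stranded by primer extension, the bound protein was detected with fluorescent anti-GST. E-scores, modified Wilcoxon-Mann-Whitney statistics, were given by the Universal PBM Analysis Suite to ungapped eight-base words pooled with their reverse complements after masliner normalisation.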

Row | Sequence | PBM E-score
1 | CGCCCTAC | -0.0875
2 | GCGTGTAA | 0.0353
3 | ACTAATTG | 0.153
4 | CCCATTAG | -0.168
5 | ATATGAGA | 0.0525
6 | GAACGTGC | -0.186
7 | ACGTCGAG | -0.29
8 | GAGAGTGC | -0.159
9 | CGTGCAAA | 0.0295
10 | GGCAAACA | 0.0667
11 | CCAGATCC | -0.277
12 | ACGAAGAG | 0.0592
13 | AGAGCTAA | -0.111
14 | AAGGAGAA | 0.0182
15 | ATAGTTGA | 0.0436
16 | ATACTCTG | 0.0448
17 | CCGGATGC | -0.147
18 | ACCCAACA | 0.205
19 | CTTGATTC | 0.0208
20 | ATCTAATC | -0.0733
21 | ACAGAAGG | 9e-05
22 | CTTGAGTA | -0.113
23 | CTAGTAAG | 0.0764
24 | ATTTATAA | 0.201
25 | ACGCTACT | -0.219

Row | Sequence | PBM E-score
26 | CAGGCAGC | -0.213
27 | AGATCATC | -0.103
28 | CGGCACAC | -0.0591
29 | ACAGCCTG | -0.162
30 | CATGATGG | -0.0569
31 | GAAGCAGC | -0.157
32 | AGGTAGCC | 0.047
33 | CATCGGCC | -0.311
34 | CATATTGC | -0.169
35 | AAGTAGTG | -0.00288
36 | ATTGTTGA | 0.057
37 | ATAACACA | 0.109
38 | ATGCAAGC | -0.0865
39 | GGTAGCAA | 0.0702
40 | AGTTAGAC | 0.00548
41 | ATAGATCA | 0.129
42 | AGTCAGAA | -0.0982
43 | CTGGCAAC | -0.0929
44 | TATCTAGA | 0.151
45 | ACGGCACA | -0.00775
46 | AACGGACT | -0.166
47 | ACATCCAA | -0.00617
48 | GTCCTCCA | -0.0422
49 | GTTTATTA | 0.237
50 | ATCGGAAG | -0.0371

Row | Sequence | PBM E-score
51 | TAATAGTA | 0.193
52 | CCTAGGAG | -0.132
53 | GGGCGGAA | -0.0292
54 | CCGATCAA | -0.1
55 | GGATGAAC | -0.109
56 | CCCTAAAA | 0.163
57 | GTCGGCCA | -0.156
58 | ACCAAGCG | -0.158
59 | CCAGACTA | -0.0968
60 | CCCCCCAC | -0.446
61 | TACATGTA | 0.0387
62 | CCAATTAG | 0.199
63 | ATGGGACC | 0.101
64 | AGTAACAC | -0.0485
65 | CTCGGGAA | -0.102
66 | CTAGCGCA | -0.194
67 | CGCACAAG | -0.0488
68 | CAGAGCTA | -0.157
69 | AAAAGATT | -0.0178
70 | CAATACAA | 0.107
71 | GGTGCCTA | -0.147
72 | CACATTTC | 0.111
73 | CAGGGAGC | -0.35
74 | GAGGAGAA | -0.256
75 | CATAACTA | 0.18

Row | Sequence | PBM E-score
76 | CTTAGCCA | -0.231
77 | CGGGTACG | 0.0198
78 | CTCAGTGC | -0.189
79 | ACCCCCCG | -0.132
80 | ACTATTTC | 0.0884
81 | GACTAGTA | -0.224
82 | GGCCAGCC | -0.142
83 | CACTGTCG | -0.217
84 | CGAAGGAC | -0.113
85 | ACAAGCTC | -0.191
86 | TTTGAAAA | 0.273
87 | ATTTATTA | 0.104
88 | AATTTGAG | 0.149
89 | ATCTCCAT | -0.102
90 | GGACTGAC | -0.177
91 | AATCAGAA | 0.141
92 | TGGACAAA | 0.0761
93 | CCACTGAC | -0.143
94 | CCGTTTCG | -0.0885
95 | CGCACCGA | -0.222
96 | AATTCGAC | -0.00492
97 | ACAGTTCG | -0.00655
98 | CGTTGCAC | -0.0395
99 | GATATCAC | 0.0302
100 | CTTGTGCA | 0.0196

Row | Sequence | PBM E-score
101 | AGAGCGTA | -0.265
102 | TACGATGA | 0.0503
103 | ACCCTACC | 0.364
104 | GCCTTAAC | 0.133
105 | CTCTGGGC | -0.235
106 | CCTGTAGC | -0.202
107 | AGGGGTAA | 0.272
108 | AACCGGGG | -0.00821
109 | CGAGGCGC | -0.064
110 | AACACCGG | 0.168
111 | AATGACGC | -0.0787
112 | GACGCGCA | -0.141
113 | CGACGCGC | 0.0666
114 | TATCATAA | 0.14
115 | CGAACCGC | 0.083
116 | AGTGAGCA | -0.0735
117 | ATCGAGAG | -0.0136
118 | CGAATTGA | -0.0748
119 | GATTGCAC | 0.0648
120 | CTCCACCC | -0.0367
121 | ACATATAG | -0.0478
122 | AAGGAACT | -0.0364
123 | TGTGAAAA | 0.171
124 | GATCAGGA | -0.145
125 | GATAGATA | 0.00177

Row | Sequence | PBM E-score
126 | AAGATGGT | 0.0235
127 | ACAGGACT | -0.104
128 | ACGTAAAG | -0.0886
129 | AGTATTGA | -0.0737
130 | CCTCTGCG | -0.0894
131 | AAACGACA | 0.12
132 | CGATTTTC | 0.12
133 | ACGCGTCG | -0.129
134 | CGCGTGTA | -0.0358
135 | CCTAGTCC | -0.128
136 | TCTGTACA | 0.0252
137 | AGATCTGA | -0.0809
138 | CTCAGCCC | -0.271
139 | AAGGCGGG | -0.353
140 | GTCGCTCA | -0.0832
141 | ACGATGTG | 0.0828
142 | TCCTTCAA | -0.0972
143 | TCCATCCA | -0.191
144 | AGCTACGA | -0.279
145 | CATTCTCC | -0.0826
146 | GCGCTTCC | -0.285
147 | GCTTGAAA | -0.0108
148 | ATAACGTC | -0.0403
149 | TCGCTTCA | -0.042
150 | GGCAGACA | -0.171

Row | Sequence | PBM E-score
151 | GCCCCAAA | 0.129
152 | CTTTGTCA | 0.13
153 | ACCGCAAG | 0.153
154 | GATCATAC | 0.0802
155 | AGGAATGG | -0.0291
156 | AGACTTCC | -0.195
157 | AATACACC | 0.275
158 | CGACCTAG | 0.0865
159 | CGACTGGC | -0.264
160 | ATACAAGC | 0.0332
161 | ACTTTATA | 0.037
162 | CTGTTGAC | 0.00032
163 | CAGGGTGG | 0.283
164 | ACATGTGA | 0.0274
165 | AGATACGC | -0.184
166 | ACGTCCTC | -0.0986
167 | CAAAATAA | 0.231
168 | ATCTGAGA | -0.109
169 | CACATATC | 0.11
170 | GATGACCA | 0.129
171 | ATTCTACC | 0.117
172 | ATTGACTC | 0.049
